Measurements: PubChem BioAssay AID1347165 (National Center for Advancing Translational Sciences (NCATS), 2019)
The whole screen tested about 220,000 compounds, of which about 5,700 (2.6%) were called active. The inconclusive results got no clear call from the source; some entries with a clear call stand among them for comparison. The call rests on the fitted dose curve; in most records, active means well fitted inhibition curve with a large enough effect; inconclusive means small, poorly fitted or top-dose-only effect; inactive means no such curve, though single readings can be large or run the other way. Potencies of inconclusive entries are doubtful fits and often do not repeat.

Target: Lysine-specific demethylase 5B (Homo sapiens) (UniProt Q9UGL1)
Chain of UniProt Q9UGL1 (Q9UGL1 whole entry, looked up): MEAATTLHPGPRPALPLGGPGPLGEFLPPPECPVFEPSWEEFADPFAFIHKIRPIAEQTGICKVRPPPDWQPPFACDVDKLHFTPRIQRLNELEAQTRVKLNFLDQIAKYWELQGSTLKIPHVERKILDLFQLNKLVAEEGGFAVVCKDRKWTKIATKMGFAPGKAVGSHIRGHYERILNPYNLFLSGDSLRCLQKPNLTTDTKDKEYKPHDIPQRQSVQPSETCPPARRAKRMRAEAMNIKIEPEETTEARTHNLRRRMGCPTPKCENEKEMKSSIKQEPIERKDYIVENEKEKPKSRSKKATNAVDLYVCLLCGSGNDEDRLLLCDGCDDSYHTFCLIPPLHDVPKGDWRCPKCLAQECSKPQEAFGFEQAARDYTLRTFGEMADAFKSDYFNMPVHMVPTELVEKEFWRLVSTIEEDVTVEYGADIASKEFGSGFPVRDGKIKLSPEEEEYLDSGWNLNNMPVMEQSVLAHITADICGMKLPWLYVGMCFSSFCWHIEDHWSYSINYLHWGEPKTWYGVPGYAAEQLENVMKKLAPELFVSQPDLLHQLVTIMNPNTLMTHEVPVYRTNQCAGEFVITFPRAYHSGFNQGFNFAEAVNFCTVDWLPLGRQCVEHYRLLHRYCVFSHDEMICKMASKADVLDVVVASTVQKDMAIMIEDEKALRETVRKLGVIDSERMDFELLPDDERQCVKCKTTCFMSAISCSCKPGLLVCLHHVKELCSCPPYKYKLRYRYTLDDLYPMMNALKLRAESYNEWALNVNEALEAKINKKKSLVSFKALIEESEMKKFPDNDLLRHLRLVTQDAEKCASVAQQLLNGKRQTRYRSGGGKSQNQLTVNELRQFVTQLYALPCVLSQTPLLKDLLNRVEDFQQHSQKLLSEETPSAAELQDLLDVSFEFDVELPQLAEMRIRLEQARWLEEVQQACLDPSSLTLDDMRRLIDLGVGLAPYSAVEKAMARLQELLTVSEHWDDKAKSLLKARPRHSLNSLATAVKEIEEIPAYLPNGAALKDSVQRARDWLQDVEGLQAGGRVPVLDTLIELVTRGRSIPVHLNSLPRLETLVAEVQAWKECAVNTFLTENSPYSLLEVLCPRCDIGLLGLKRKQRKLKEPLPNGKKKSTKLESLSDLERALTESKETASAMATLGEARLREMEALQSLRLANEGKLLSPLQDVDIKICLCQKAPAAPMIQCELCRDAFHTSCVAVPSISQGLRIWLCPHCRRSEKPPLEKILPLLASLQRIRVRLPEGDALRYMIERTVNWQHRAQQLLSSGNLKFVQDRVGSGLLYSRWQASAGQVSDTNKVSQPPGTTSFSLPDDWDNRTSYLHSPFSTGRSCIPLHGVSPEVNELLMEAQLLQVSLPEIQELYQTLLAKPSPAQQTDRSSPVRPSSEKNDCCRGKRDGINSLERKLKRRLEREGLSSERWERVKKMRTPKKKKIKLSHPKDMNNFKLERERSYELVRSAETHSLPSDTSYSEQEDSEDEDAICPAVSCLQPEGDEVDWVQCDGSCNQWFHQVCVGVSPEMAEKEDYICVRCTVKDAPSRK
Assay: Primary screen for KDM5B Histone Demethylases FDH-coupled qHTS; further: nearly all actives have a fitted effect of over 70% in size; on activity change, negative = inhibition: 0% is about no effect
Conditions: FDH-coupled NADH fluorescence (FDH is formaldehyde dehydrogenase); activity change, negative = inhibition: at 57.7 µM (top of the series) unless noted
In short: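 Inhibition is measured as reduced NADH fluorescence generation from FDH coupling to formaldehyde release. Truncated KDM5BΔAP at 200 nM final acts on H3K4me3 peptide (12.5 µM in substrate mix) in pH 7.5 HEPES buffer with Tween-20, 30 min, room temperature.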
Potency means the concentration at half of the fitted maximal effect; tags describe the fitted curve by direction and shape.

Row | Compound | activity change, negative = inhibition | Potency
1 | CCc1cccc(-n2nnnc2N2CCN(C(=O)NC(C)(C)c3ccccc3)CC2)c1 | inactive: 24% [at 115 µM] | 
2 | COc1ccc(CCNC(=O)c2cc3c(=O)n(C)c4ccccc4c3s2)cc1OC |  | inconclusive: 7.94 µM [inhibitor, partial curve, poor fit]
3 | Cc1cc(CNC(=O)c2cccc(F)c2F)c2[nH]c(C)c(C)c2c1 |  | inconclusive: 17.8 µM [inhibitor, single point]
4 | Cn1nc(C(=O)OCc2nc(-c3ccccc3)no2)c2ccccc21 |  | inconclusive: 28.2 µM [inhibitor, single point]
5 | COc1cccc(CN2C[C@@H]3C(=O)N(Cc4ccc5c(c4)OCO5)C(=O)[C@@H]3C2)c1OC | inactive: -1.28% | 
6 | CCCCN(CC)CCNC(=O)Cn1c(C)c(C(=O)OCC)c(C)c1-c1ccccc1 | inactive: 5.23% | 
7 | Cc1ccc(C(=O)NC2CCN(c3cc(-c4ccc(F)cc4)[nH]n3)CC2)cc1 |  | inconclusive: 31.6 µM [inhibitor, partial curve, poor fit]
8 | O=C1Nc2ccc(-c3ccc4c(c3)OCO4)cc2C(=O)N2CCN(C(=O)c3cccs3)C[C@@H]12 |  | active: 28.2 µM
9 | O=C(/C=C/c1ccc(Cl)cc1)N1CCC(c2nc3ccccc3o2)CC1 |  | inconclusive: 2.24 µM [inhibitor, partial curve, poor fit]
10 | COc1cc(C2C(C#N)=C(SCc3ccccc3)NC3=C2C(=O)CCC3)cc(OC)c1OC (centres undefined) |  | inconclusive: 14.1 µM [inhibitor, partial curve, poor fit]
11 | COc1cc(Cl)ccc1C(=O)N1CCC2(CC1)NC(=O)N(c1ccc(F)cc1)N2 | inactive: 2.32% | 
12 | Cc1ccc(CNC(=O)C2CC2)cn1 | inactive: -6.36% | 
13 | CCCn1c(=O)c2sccc2n2c(CCCC(=O)N3CCN(c4cccc(Cl)c4)CC3)nnc12 |  | inconclusive: 35.5 µM [inhibitor, single point]
14 | COc1ncccc1-c1cccc(CCOc2cnc3c(ccn3CC(=O)O)c2)c1 |  | active: 39.8 µM
15 | CCOc1ccc(CNC(=O)c2ccc3nc(Cc4ccccc4F)oc3c2)cc1OC | inactive: 3.29% | 
16 | Cc1cc2c3cccn3ccn2c1 |  | inconclusive: 14.1 µM [inhibitor, partial curve, poor fit]
17 | O=C(Cn1ccn2nc(-c3ccc(F)cc3)c(CO)c2c1=O)Nc1ccc(F)c(Cl)c1 |  | inconclusive: 28.2 µM [inhibitor, partial curve, poor fit]
18 | CC(=O)c1cccc(NC(=O)CN2C(=O)CC(c3ccc(C)cc3C)=Nc3ccccc32)c1 |  | inconclusive: 10 µM [inhibitor, partial curve, poor fit]
19 | Cc1cccc(CN2CCNc3cc(-c4ccnc(C)c4)ncc3C2)c1 |  | inconclusive: 31.6 µM [inhibitor, single point]
20 | COc1ccc2nc3n(c2c1)[C@@H](CNC(=O)c1ccc(F)cc1)COC3 |  | active: 35.5 µM
21 | CN(C)C[C@@H]1CN(c2ccccn2)C[C@H]1NC(=O)c1ccc2c(c1)OCO2 |  | active: 28.2 µM
22 | Cc1cc(C)cc(NC(=O)CSc2ccc(S(=O)(=O)N3CCOCC3)cn2)c1 | inactive: 19.7% | 

Row | Compound | activity change, negative = inhibition | Potency
23 | CNc1ccc(C(=O)N2CCC(CCn3cccn3)CC2)cn1 |  | active: 22.4 µM
24 | OC1CC(c2cc(N3CCC(c4nnc5ccccn45)CC3)ncn2)C1 (centres undefined) | inactive: -21.4% | 
25 | CCOC(=O)COc1ccc(C)cc1C(=O)c1ccn2nc(-c3ccc(Cl)cc3)cc2n1 |  | inconclusive: 15.8 µM [inhibitor, partial curve, poor fit]
26 | FC(F)(F)c1cc(-c2ccco2)nc2c(-c3cccc(Cl)c3)cnn12 | inactive: 5.79% | 
27 | COc1ccc(-c2cc(C(=O)NCC3CCCO3)c3ccccc3n2)cc1 (centres undefined) |  | inconclusive: 28.2 µM [inhibitor, partial curve, poor fit]
28 | CCOC(=O)c1ccccc1NC(=O)c1cc2ccc3cccnc3c2[nH]1 |  | inconclusive: 2.51 µM [inhibitor, partial curve, poor fit]
29 | CC(=O)Nc1ccc(SCCCC(=O)c2cccs2)cc1 | inactive: 31.8% | 
30 | CCCOC(=O)CSc1nnc(-c2ccccc2)o1 |  | inconclusive: 12.6 µM [inhibitor, partial curve, poor fit]
31 | Cc1cc(C)c(-c2c(O)c3ccccc3n(C)c2=O)c(C)c1 |  | inconclusive: 28.2 µM [inhibitor, partial curve, poor fit]
32 | CSc1ccc(Cl)c(C(=O)NC(C)c2ccncc2)c1 (centres undefined) | inactive: -5.45% | 
33 | CCn1c(C(=O)Nc2ccc(C)cc2C)cc2sc(Cl)cc21 |  | inconclusive: 39.8 µM [inhibitor, partial curve, poor fit]
34 | Cc1nn2c(c1-c1ccccc1Oc1ccccc1)N(Cc1ccc(OCC(=O)O)cc1)CCC2 |  | inconclusive: 25.1 µM [inhibitor, partial curve, poor fit]
35 | COc1ccc(/C(C)=N/Nc2nc3ccccc3nc2C)cc1OC |  | inconclusive: 28.2 µM [inhibitor, partial curve, poor fit]
36 | CCCC1N=C2c3ccccc3N=C(SCC(=O)NCCc3ccc(Cl)cc3)N2C1=O (centres undefined) |  | inconclusive: 31.6 µM [inhibitor, partial curve, poor fit]
37 | Fc1ccc(CNc2cc3c(cn2)NCCN(Cc2ccccc2)C3)cc1 |  | inconclusive: 39.8 µM [inhibitor, partial curve, poor fit]
38 | Cn1cc(-c2cnc(Nc3cccc(C(F)(F)F)c3)c3c2CCO3)cn1 |  | active: 35.5 µM
39 | COc1ccc(C(=O)Nc2cccc3ccc(C)nc23)cc1Cl | inactive: 17.9% | 
40 | COc1ccc(-c2coc3cc(OCC(=O)Nc4ccccc4Cl)ccc3c2=O)cc1 | inactive: 7.81% | 
41 | CC1(c2ccccc2)N(Cc2ccccc2)C(=O)OC12CCN(C(=O)c1cccc(O)c1)CC2 (centres undefined) | inactive: -16.9% | 
42 | CCNc1ccc2c(cc1=O)[C@@H](NC(C)=O)CCc1cc(OC)c(OC)c(OC)c1-2 | inactive: -11.7% | 
43 | O=C(NCC1(COc2cccnc2)C[C@@H](O)[C@@H](O)C1)Nc1cccnc1 (some centres undefined) |  | inconclusive: 35.5 µM [inhibitor, partial curve, poor fit]
44 | COc1ccccc1C(=O)N1CCn2c(nn(-c3ccc(C(F)(F)F)cc3)c2=O)C1 |  | active: 79.4 µM
